Measured values: patent US7592316B2, “Peptides as NS3-serine protease inhibitors of hepatitis C virus” (Schering Corporation, priority 2000, dated 2009)

The compounds below were run against HCV NS3/NS4A protease (strain 1a) (Hepatitis C virus genotype 1a, UniProt P27958) (assay: biochemical). Settings: HCV protease continuous assay results, Table 1; read-out: Ki* Range.

SMILES | Ki [nM]
CCCC(NC(=O)[C@@H]1CC(OCCOc2ccccc2)CN1C(=O)C(NC(=O)OC(C)(C)C)C1CCCCC1)C(=O)C(=O)NCC(=O)NC(C(=O)N(C)C)c1ccccc1 (stereo partly drawn) [Example 259] | 1 to 100
CCCCCC(NC(=O)[C@@H]1C[C@@H](OC(C)(C)C)CN1C(=O)[C@@H](NC(=O)OCC(C)C)C(C)(C)C)C(=O)C(=O)NCC(=O)O (stereo partly drawn) [Example 260] | > 1000
CCC[C@@H](NC(=O)[C@@H]1C[C@@H](C)CN1C(=O)[C@@H](NC(=O)OCC(C)C)C(C)(C)C)C(=O)C(=O)NCC(=O)NC(C(=O)N(C)C)c1ccccc1 (stereo partly drawn) [Example 261] (Isobutyloxycarbonyl-[Tle][Pro(4R-Me)][X19]G[ξPhg]-NMe2) | > 1000
CCC[C@H](NC(=O)[C@@H]1C[C@@H](C)CN1C(=O)[C@@H](NC(=O)OCC(C)C)C(C)(C)C)C(=O)C(=O)NCC(=O)NC(C(=O)N(C)C)c1ccccc1 (stereo partly drawn) [Example 262] (Isobutyloxycarbonyl-[Tle][Pro(4R-Me)][X12]G[ξPhg]-NMe2) | 1 to 100
CCCC(NC(=O)[C@@H]1C[C@@H](C)CN1C(=O)[C@@H](NC(=O)OCC(C)C)C(C)(C)C)C(=O)C(=O)NCC(=O)NC(C(=O)N(C)C)c1ccccc1 (stereo partly drawn) [Example 263] (Isobutyloxycarbonyl-[Tle][Pro(4R-Me)][X2]G[ξPhg]-NMe2) | 101 to 1000
CCCC(NC(=O)[C@@H]1C[C@H](C)CN1C(=O)[C@@H](NC(=O)OCC(C)C)C(C)(C)C)C(=O)C(=O)NCC(=O)NC(C(=O)N(C)C)c1ccccc1 (stereo partly drawn) [Example 264] (Isobutyloxycarbonyl-[Tle][Pro(4S-Me)][X2]G[ξPhg]-NMe2) | 101 to 1000
CCCCC(NC(=O)[C@@H]1C[C@@H](OC(C)(C)C)CN1C(=O)[C@@H](NC(=O)OCC(C)C)C(C)(C)C)C(=O)C(=O)NCC(=O)N[C@H](CN=[N+]=[N-])c1ccccc1 (stereo partly drawn) [Example 265] | > 1000
CCC[C@@H](NC(=O)[C@@H]1[C@@H]2C(CN1C(=O)[C@@H](NC(=O)OCC(C)C)C(C)(C)C)[C@@H]1CC[C@@H]2C1)C(=O)C(=O)NCC(=O)NC(C(=O)N(C)C)c1ccccc1 (stereo partly drawn) [Example 266] | 101 to 1000
CCC[C@H](NC(=O)[C@@H]1[C@@H]2C(CN1C(=O)[C@@H](NC(=O)OCC(C)C)C(C)(C)C)[C@@H]1CC[C@@H]2C1)C(=O)C(=O)NCC(=O)NC(C(=O)N(C)C)c1ccccc1 (stereo partly drawn) [Example 267] | 1 to 100
CCCCC(NC(=O)[C@@H]1C[C@@H](OC(C)(C)C)CN1C(=O)[C@@H](NC(=O)OCC(C)C)C(C)(C)C)C(=O)C(=O)NCC(=O)NC[C@@H](NC(=O)OC(C)(C)C)c1ccccc1 (stereo partly drawn) [Example 268] | > 1000
CCCC(NC(=O)[C@@H]1[C@@H]2C(CN1C(=O)[C@@H](NC(=O)OCC(C)C)C(C)(C)C)[C@@H]1CC[C@@H]2C1)C(=O)C(=O)NCC(=O)NC(C(=O)N(C)C)c1ccccc1 (stereo partly drawn) [Example 269] | 1 to 100
CCCCCC(NC(=O)[C@@H]1C[C@@H](OC(C)(C)C)CN1C(=O)C(NC(=O)OCC(C)C)C(C)(C)C)C(=O)C(=O)NCC(=O)N[C@H](C(=O)N(C)C)c1ccccc1 (stereo partly drawn) [Example 270] (Isobutyloxycarbonyl-[ξTle][Hyp](tBu)[X102]G[Phg]-NMe2) | > 1000
CSCC(NC(=O)[C@@H]1CC2(CN1C(=O)[C@@H](NC(=O)OCC(C)C)C(C)(C)C)SCCCS2)C(=O)C(=O)NCC(=O)NC(C(=O)N(C)C)c1ccccc1 (stereo partly drawn) [Example 271] (Isobutyloxycarbonyl-[Tle][Pro(4,4-S(CH2)3S)][X46]G[ξPhg]-NMe2) | 1 to 100
CCCCC(NC(=O)[C@@H]1C[C@@H](OC(C)(C)C)CN1C(=O)[C@@H](NC(=O)OCC(C)C)C(C)(C)C)C(=O)C(=O)NCC(=O)N[C@H](CNC(C)=O)c1ccccc1 (stereo partly drawn) [Example 272] | > 1000
CCCCC(NC(=O)[C@@H]1C[C@@H](OC(C)(C)C)CN1C(=O)[C@@H](NC(=O)OCC(C)C)C(C)(C)C)C(=O)C(=O)NCC(=O)N[C@H](CNC(=O)c1ccco1)c1ccccc1 (stereo partly drawn) [Example 273] | > 1000
C=CCCC(NC(=O)[C@@H]1C[C@@H](OC(C)(C)C)CN1C(=O)[C@@H](NC(=O)OCC(C)C)C(C)(C)C)C(=O)C(=O)NCC(=O)OC (stereo partly drawn) [Example 274] | > 1000
C=CCCC(NC(=O)[C@@H]1C[C@@H](OC(C)(C)C)CN1C(=O)[C@@H](NC(=O)OCC(C)C)C(C)(C)C)C(=O)C(=O)NCC(=O)O (stereo partly drawn) [Example 275] | > 1000
CCCC(NC(=O)[C@@H]1C[C@@H](OCCOc2ccccc2)CN1C(=O)[C@@H](O)C(C)(C)C)C(=O)C(=O)NCC(=O)N[C@H](C(=O)N(C)C)c1ccccc1 (stereo partly drawn) [Example 281] | > 1000
CCCCC(NC(=O)[C@@H]1C[C@@H](OC(C)(C)C)CN1C(=O)[C@@H](NC(=O)OCC(C)C)C(C)(C)C)C(=O)C(=O)NCC(=O)O (stereo partly drawn) [Example 282] | > 1000
CCCCC(NC(=O)[C@@H]1C[C@@H](OC(C)(C)C)CN1C(=O)[C@@H](NC(=O)OCC(C)C)C(C)(C)C)C(=O)C(=O)NCC(=O)N[C@@H](CNC(=O)c1ccco1)c1ccccc1 (stereo partly drawn) [Example 283] | > 1000
CCCCC(NC(=O)[C@@H]1C[C@@H](OC(C)(C)C)CN1C(=O)[C@@H](NC(=O)OCC(C)C)C(C)(C)C)C(=O)C(=O)NCC(=O)N[C@@H](CNC(C)=O)c1ccccc1 (stereo partly drawn) [Example 284] | > 1000
CCCCC(NC(=O)[C@@H]1C[C@@H](OC(C)(C)C)CN1C(=O)[C@@H](NC(=O)OCC(C)C)C(C)(C)C)C(=O)C(=O)NCC(=O)N[C@@H](CN=[N+]=[N-])c1ccccc1 (stereo partly drawn) [Example 285] | > 1000

SMILES | Ki [nM]
CCCCC(NC(=O)[C@@H]1C[C@@H](OC(C)(C)C)CN1C(=O)[C@@H](NC(=O)OCC(C)C)C(C)(C)C)C(=O)C(=O)NCC(=O)NC[C@H](NC(=O)OC(C)(C)C)c1ccccc1 (stereo partly drawn) [Example 286] | > 1000
CCC[C@H](NC(=O)[C@@H]1[C@@H]2[C@H](CN1C(=O)[C@@H](NC(=O)OC(C)(C)C)C(C)(C)C)C2(C)C)C(=O)C(N)=O [Example 289] | 101 to 1000
CCCC(NC(=O)[C@@H]1CC2(CN1C(=O)C(OC(C)=O)C(C)(C)C)SCCCS2)C(=O)C(=O)NCC(=O)NC(C(=O)N(C)C)c1ccccc1 (stereo partly drawn) [Example 290] | > 1000
CCCCC(NC(=O)[C@@H]1C[C@@H](OC(C)(C)C)CN1C(=O)[C@@H](NC(=O)OCC(C)C)C(C)(C)C)C(=O)C(=O)NCC(=O)N[C@@H](c1ccccc1)[C@@H](C)O (stereo partly drawn) [Example 291] | > 1000
CCCC(NC(=O)[C@@H]1CC2(CN1C(=O)C(O)C(C)(C)C)SCCCS2)C(=O)C(=O)NCC(=O)NC(C(=O)N(C)C)c1ccccc1 (stereo partly drawn) [Example 292] | > 1000
CCCCC(NC(=O)[C@@H]1C[C@@H](OC(C)(C)C)CN1C(=O)[C@@H](NC(=O)OCC(C)C)C(C)(C)C)C(=O)C(=O)NCC(=O)OC (stereo partly drawn) [Example 293] | > 1000
CCCCC(NC(=O)[C@@H]1C[C@@H](OC(C)(C)C)CN1C(=O)[C@@H](NC(=O)OCC(C)C)C(C)(C)C)C(=O)C(=O)NCC(=O)NC[C@@H](N)c1ccccc1 (stereo partly drawn) [Example 295] | > 1000
CCCCC(NC(=O)[C@@H]1C[C@@H](OC(C)(C)C)CN1C(=O)[C@@H](NC(=O)OCC(C)C)C(C)(C)C)C(=O)C(=O)NCC(=O)N[C@H](C(C)=O)c1ccccc1 (stereo partly drawn) [Example 298] | > 1000
C=CCCC(NC(=O)[C@@H]1[C@@H]2[C@H](CN1C(=O)[C@H](NC(=O)OC(C)(C)C)C(C)(C)C)C2(C)C)C(=O)C(=O)NCC(=O)OC (stereo partly drawn) [Example 299] | 101 to 1000
C=CCCC(NC(=O)[C@@H]1[C@@H]2[C@H](CN1C(=O)[C@H](NC(=O)OC(C)(C)C)C(C)(C)C)C2(C)C)C(=O)C(=O)NCC(=O)O (stereo partly drawn) [Example 300] | 101 to 1000
CCC[C@H](NC(=O)[C@@H]1C[C@@H](OC(C)(C)C)CN1C(=O)[C@@H](NC(=O)OCC(C)C)C1CCCCC1)C(=O)C(=O)O [Example 302] | > 1000
CCCC(NC(=O)[C@@H]1C[C@@H](OC(C)(C)C)CN1C(=O)[C@@H](NC(=O)OCC(C)C)C(C)(C)C)C(=O)C(=O)NCC(=O)N[C@H](CO)c1ccccc1 (stereo partly drawn) [Example 303] | 101 to 1000
CCCC(NC(=O)[C@@H]1C[C@@H](OC(C)(C)C)CN1C(=O)[C@@H](NC(=O)OCC(C)C)C1CCCCC1)C(=O)C(N)=O (stereo partly drawn) [Example 304] | > 1000
CCCCC(NC(=O)[C@@H]1[C@@H]2[C@H](CN1C(=O)[C@@H](NC(=O)OC(C)(C)C)C(C)(C)C)C2(C)C)C(=O)C(=O)OC (stereo partly drawn) [Example 305] | > 1000
CCCC(NC(=O)[C@@H]1C[C@@H](OC(C)(C)C)CN1C(=O)[C@@H](NC(=O)OCC(C)C)C(C)(C)C)C(=O)C(=O)NCC(=O)N[C@H](CO)C1SCCS1 (stereo partly drawn) [Example 306] | > 1000
CCCCC(NC(=O)[C@@H]1[C@@H]2[C@H](CN1C(=O)[C@@H](NC(=O)OC(C)(C)C)C(C)(C)C)C2(C)C)C(=O)C(=O)O (stereo partly drawn) [Example 307] | 101 to 1000
CCCCC(NC(=O)[C@@H]1[C@@H]2[C@H](CN1C(=O)[C@@H](NC(=O)OC(C)(C)C)C(C)(C)C)C2(C)C)C(=O)C(N)=O (stereo partly drawn) [Example 308] | 101 to 1000
CCCC(NC(=O)[C@@H]1C[C@@H](OC(C)(C)C)CN1C(=O)[C@@H](NC(=O)OCC(C)C)C(C)(C)C)C(=O)C(=O)NCC(=O)N[C@H](CO)C1CC1 (stereo partly drawn) [Example 310] | > 1000
CCCC(NC(=O)[C@@H]1C[C@@H](OC(C)(C)C)CN1C(=O)[C@@H](NC(=O)OCC(C)C)C1CCCCC1)C(=O)C(=O)OC (stereo partly drawn) [Example 312] | > 1000
CSCC(NC(=O)[C@@H]1C[C@@H](OC(C)(C)C)CN1C(=O)[C@@H](NC(=O)OCC(C)C)C(C)(C)C)C(=O)C(=O)NCC(=O)N[C@H](C(=O)N(C)C)c1ccccc1 (stereo partly drawn) [Example 315] (Isobutyloxycarbonyl-[Tle][Hyp](tBu)[X46]G[Phg]-NMe2) | 101 to 1000
CCCCC(NC(=O)[C@@H]1C[C@@H](OC(C)(C)C)CN1C(=O)[C@@H](NC(=O)OCC(C)C)C(C)(C)C)C(=O)C(=O)NCC(=O)N[C@H](C(=O)N(C)C)c1cccs1 (stereo partly drawn) [Example 316] (Isobutyloxycarbonyl-[Tle][Hyp](tBu)[X4]G[Gly(2-thienyl)]-NMe2) | 101 to 1000
CCCCC(NC(=O)[C@@H]1C[C@@H](OC(C)(C)C)CN1C(=O)[C@@H](NC(=O)OCC(C)C)C(C)(C)C)C(=O)C(=O)NCC(=O)N[C@H](C(=O)N(C)C)c1cccs1 (stereo partly drawn) [Example 317] (Isobutyloxycarbonyl-[Tle][Hyp](tBu)[X4]G[Gly(2-thienyl)]-NMe2) | 1 to 100

Same assay, conditions: Ki* Range, HCV protease continuous assay results, Table 1

SMILES | Ki [nM]
CCCCC(NC(=O)[C@@H]1C[C@@H](OC(C)(C)C)CN1C(=O)[C@@H](NC(=O)OCC(C)C)C(C)(C)C)C(=O)C(=O)NCC(=O)N[C@H](COP(=O)(Oc1ccccc1)Oc1ccccc1)c1ccccc1 (stereo partly drawn) [Example 297] | > 1000

*1 amine or outer side, *2 acyl side, *3 side chain or, on linkers, in order; H or OH if unused. Where a SMILES comes first, the peptide text is derived from it. [ ]: non-standard residue; d: D form. The star is where a group is joined. ξ: configuration not given here. Pro(4,4-S(CH2)3S) = O=C(O)[C@@H]1CC2(CN1)SCCCS2; Gly(2-thienyl) = N[C@H](C(=O)O)c1cccs1; Pro(4S-Me) = C[C@@H]1CN[C@H](C(=O)O)C1; X19 = CCC[C@@H](N[*:1])C(=O)C(=O)[*:2]; Pro(4R-Me) = C[C@H]1CN[C@H](C(=O)O)C1; X12 = CCC[C@H](N[*:1])C(=O)C(=O)[*:2]; X102 = CCCCCC(N[*:1])C(=O)C(=O)[*:2]; Isobutyloxycarbonyl = CC(C)COC(=O)*; X4 = CCCCC(N[*:1])C(=O)C(=O)[*:2]; X46 = CSCC(N[*:1])C(=O)C(=O)[*:2]; Hyp = O=C(O)[C@@H]1C[C@@H](O)CN1; X2 = CCCC(N[*:1])C(=O)C(=O)[*:2]; Phg = N[C@H](C(=O)O)c1ccccc1; Tle = CC(C)(C)[C@H](N)C(=O)O; ξPhg = NC(C(=O)O)c1ccccc1; ξTle = CC(C)(C)C(N)C(=O)O; tBu = CC(C)(C)*
